# Assay results: ChEMBL document CHEMBL4888484, “Replenishing the malaria drug discovery pipeline: Screening and hit evaluation of the MMV Hit Generation Library 1 (HGL1) against asexual blood stage Plasmodium falciparum ,using a nano luciferase reporter read-out” (2022)
# Hit rate of the full screen: of about 150,000 compounds, about 540 (0.36%) showed an effect of 50% or more. The list shows a part of the results.
# System: Plasmodium falciparum
# Experiment: Primary screen in NF54 nanoGlo assay, in single point, at 2uM, 72h; a lower Z score goes with more inhibition
# Format: functional, Erythrocyte
# Details: timepoint 72 hour
Structure (SMILES),% Inhibition,Z score
COc1ccc(-n2nc(C)c3sc(N4CCCN(C(=O)c5sccc5C)CC4)nc32)cc1,-13%,1.51
CCNC(=O)c1ccc(N[C@H]2CCCc3c2cnn3C)nn1,-12%,1.53
COCC(O)CN(C)C(=O)C(C)c1ccccc1F (stereo unspecified),2%,-0.16
O=C(C[C@H]1CNCCO1)NCc1nc2ccccc2s1,0%,-0.06
CCC(CC)(CO)c1nc(Cn2ccnn2)no1,8%,-1.12
O=S(=O)(NCC1CCN([C@H]2CCOC2)CC1)c1ccccc1,-3%,0.4
CNC(=O)[C@H](Nc1nc(C)cc(N(C)C)n1)c1ccc(F)c(F)c1,-3%,0.51
CC(C)[C@H]1CN(c2cc(NCCO)ncn2)C[C@@H]1NC(=O)C1CCC1,0%,0.04
Cc1cccc(OCC(O)CN2CC3(C)CC2CC(C)(C)C3)c1 (stereo unspecified),-12%,1
Cc1cccc(NC(=O)c2ccn(COc3cccc(C(F)(F)F)c3)n2)n1,-2%,0.36
C[C@H]1CN(C(=O)Cn2cnc(C#N)n2)CCO1,7%,-0.96
Cc1cc2occ(C(=O)N3CC4(CNC(=O)O4)C3)c2cc1C,-3%,0.38
CCC(C)CN1C(=O)C(C)NC12CCN(S(=O)(=O)c1ccc(Cl)c(Cl)c1)CC2 (stereo unspecified),-4%,0.46
Cc1ccc(NC(=O)[C@H](Cc2c[nH]c3ccccc23)NC(=O)C2CCN(C(=O)CNC(=O)OC(C)(C)C)CC2)cc1,-16%,1.42
Cc1ccc(-n2nc3c(=O)n(CC(=O)NC4CCCC4)nc(C)c3c2C)cc1,8%,-0.98
CC[n+]1c(/C=C/N(C)c2ccccc2)oc2ccc(-c3ccccc3)cc21,88%,-9.92
COc1ccc(C(C)=O)cc1CON=C(N)C1CCCC1,0%,-0.05
O=C(COc1ccc(Cl)c(Cl)c1)N1CC[C@@]2(O)CCCC[C@H]2C1,-3%,0.57
CCn1cc(C2C[S+]([O-])CCN2Cc2sc(C)nc2C(F)(F)F)cn1 (stereo unspecified),-2%,0.26
Cc1ccc(CN2CCN(Cc3[nH]nc(C)c3Cl)[C@@H](C)C2=O)cc1,-11%,1.87
Cc1cnn(C2CCN(CC3COC4(CCCCC4)O3)C2)c1 (stereo unspecified),3%,-0.31
Cc1cc(NC(=O)c2cc(S(=O)(=O)N3CCc4ccccc43)cs2)no1,-10%,1.15
O=C1C[C@H](c2ccc(F)cc2F)c2c(-c3ccc(Cl)cc3)n[nH]c2N1,29%,-3.31
CCc1c(C)sc(NC(=O)C(F)(F)F)c1C(N)=O,-27%,3.12
CN1CCO[C@@H](CNCc2cncc(Br)c2)C1,4%,-0.53
Cc1ccc(C)c(OCc2nnc(NC(=O)c3ccc4c(c3)OCO4)s2)c1,-4%,0.65
O=C(c1csc2c1CCCC2)N1CCC(Cc2ccccc2)CC1,-1%,0.18

Structure (SMILES),% Inhibition,Z score
CC(=O)Nc1ccc2c(c1)C1CCN2CC1,-31%,3.61
NC(=O)C[C@H](c1c(F)cccc1Cl)c1c(Cc2ccccc2)[nH][nH]c1=O,-6%,0.79
C[C@H]1CN(S(=O)(=O)N(CCc2cccc(F)c2)C2CC2)CCO1,-3%,0.26
CC[C@@H](C(=O)Nc1c(C(=O)Nc2ccc3c(c2)OCO3)oc2ccccc12)c1ccccc1,-6%,1.2
C[C@@H](c1ccccn1)N(C)c1ccc(C#N)nc1,-9%,1.11
Cc1[nH]nc(CCC(=O)N2CCC[C@@]3(CCC(=O)N(CCC(C)C)C3)C2)c1C,6%,-0.78
O=c1ccc(-c2ccccc2)nn1CN(C1CCCCC1)C1CC1,-1%,0.1
C[C@H](O)c1ccc(-c2cccc(C(=O)N3CCOC(C)(C)C3)c2)cc1,-5%,0.7
CC(C)COC(=O)N1CCC[C@H]1C(=O)NC1CCCCCC1,-8%,1.15
Cc1cc(C)nc(NC(=O)N(C)Cc2cscn2)c1,-18%,2.08
O=C(Cn1cc(C(=O)Nc2ccsc2)cn1)NC1CCCCC1,-1%,0.23
COc1cc(OC)nc(N2C[C@H]3CC[C@@H](C2)N(Cc2c(C)noc2C)C3=O)n1,-7%,0.94
CCn1ncnc1COc1cccc2c1[C@@H](O)CC(C)(C)O2,-4%,0.46
Cc1ccccc1N1C(=O)c2cc(C(C)C)nn2C[C@@]1(C)C(=O)NC1CCCCCCC1,-2%,0.29
CC(C)(C)C(=O)N1CCC(N2CCC[C@H](C(=O)NCc3ccccn3)C2)CC1,-1%,0.23
CC(C)COC[C@@H](O)CN(Cc1c(-c2ccccc2)nn(C)c1Oc1ccc(Cl)cc1)CC1CC1,-8%,0.84
COCCN1CC[C@H](CN(C)C(=O)CC(=O)Nc2cccc(C)c2)C1,-5%,0.48
CCCC(=O)Nc1c(S(=O)(=O)c2ccccc2)c(C)c(C)n1CCC,-11%,1.42
Cc1noc(-c2ccco2)c1C(=O)NCCOc1ccccc1,-4%,0.52
Cc1nccn1C[C@H](C)Cn1c(=O)[nH]c2ccccc2c1=O,-6%,0.94
O=c1[nH]c(=O)c2nnc(Nc3ccc(Cl)cc3)nc2[nH]1,-3%,0.37
CCOC(=O)N1CCC(NCc2cc3ccc(Cl)cc3n(CCOc3ccccc3)c2=O)CC1,-7%,1.3
COC1(C)CN(c2ccnc(CO)c2)C1,-2%,0.27
O=S(=O)(Nc1ccc(-c2nc3ccc(Cl)cc3s2)cc1)c1cccs1,5%,-0.59
Cc1ccc(-c2csc(NC(=O)c3cnsn3)n2)cc1,-10%,2.02
Cc1nonc1CNC(=O)[C@@H]1CCCN1C(=O)C1CCCCC1,9%,-1.68
